# Among all 410,000 compounds or so, about 6,400 (1.6%) were called active. This list was built around the results that the source calls inconclusive (neither active nor inactive); the mix of calls is not that of the screen. The call rests on the fitted dose curve; in most records, active means well fitted inhibition curve with a large enough effect; inconclusive means small, poorly fitted or top-dose-only effect; inactive means no such curve, though single readings can be large or run the other way. No potency is given beside an inconclusive call; the fits are too rough.
# Biological target: Glucagon-like peptide 1 receptor (Homo sapiens) (UniProt P43220)
# Assay: qHTS of GLP-1 Receptor Inverse Agonists (Inhibition Mode); further: nearly all actives have a fitted effect of over 55% in size
# Details: HEK293 GLP-1R CRE-luciferase, luminescence, 24 h, GLP-1R form is constitutively active; activity change, negative = inhibition: at 38.3 µM (top of the series) unless noted
# Method in brief: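 GLP-1R inverse agonism mode: basal reporter luminescence in engineered HEK293 cells measured after one day of compound exposure at 37 deg C, with a 12 min room-temperature detection step.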
# On the % scale 0 is the no-effect control and ±100 the full control effect; potency means the concentration at half of the fitted maximal effect; tags describe the fitted curve by direction and shape.
# Chain of UniProt P43220 (P43220 whole entry, looked up): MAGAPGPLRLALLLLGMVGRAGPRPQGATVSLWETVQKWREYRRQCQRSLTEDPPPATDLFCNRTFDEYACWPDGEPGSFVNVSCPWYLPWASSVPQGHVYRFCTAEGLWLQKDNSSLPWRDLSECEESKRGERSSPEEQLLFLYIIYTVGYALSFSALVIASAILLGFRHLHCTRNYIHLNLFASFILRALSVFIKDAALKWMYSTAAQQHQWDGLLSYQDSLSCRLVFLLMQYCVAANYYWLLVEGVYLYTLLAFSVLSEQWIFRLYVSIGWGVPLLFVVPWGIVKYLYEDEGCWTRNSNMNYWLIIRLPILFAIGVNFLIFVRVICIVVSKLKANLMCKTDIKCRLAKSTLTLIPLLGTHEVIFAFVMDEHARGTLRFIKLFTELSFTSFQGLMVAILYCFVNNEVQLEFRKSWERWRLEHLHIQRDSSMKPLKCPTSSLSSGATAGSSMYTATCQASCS
SMILES,Potency,"activity change, negative = inhibition"
O=C(NC(C(=O)N/N=C/c1cccc2ccccc12)c1n[nH]c(=O)c2ccccc12)c1ccccc1 (stereo unspecified),"inconclusive [inhibitor, single point]",–
O=C(CCC(=O)N1CCSc2ccccc21)NCc1cccc(Cl)c1,"inconclusive [inhibitor, single point]",–
Cc1sc(NC(=O)c2ccco2)c(C(c2cccnc2)N2CCCC2)c1C (stereo unspecified),"inconclusive [inhibitor, partial curve, poor fit]",–
Cc1oc2ncn(C)c(=O)c2c1C(=O)NCCCN1CCCC(C)C1 (stereo unspecified),"inconclusive [inhibitor, full curve, poor fit]",–
COc1ccc(/C=N/NC(=O)c2[nH]c3ccc(C)cc3c2-c2ccccc2)c(C(=O)O)c1OC,"inconclusive [inhibitor, single point]",–
CC(=O)N1CCCN(Cc2cn(-c3cccc(C)c3)nc2-c2cccc(F)c2)CC1,"inconclusive [inhibitor, partial curve, poor fit]",–
Cc1cc(NC(=O)CSc2nc(C(C)(C)C)nc3ccccc23)no1,"inconclusive [inhibitor, full curve, poor fit]",–
COc1ccc2[nH]cc(C(=O)CCl)c2c1,"inconclusive [inhibitor, single point]",–
O=C(COc1ccc(F)cc1Br)Nc1ccccc1N1CCCC1,"inconclusive [inhibitor, single point]",–
CN(C)CCCNC(=O)CC(c1ccc(F)cc1)c1ccco1 (stereo unspecified),"inconclusive [inhibitor, single point]",–
CCc1cc2cc(C)ccc2nc1SCC(=O)N1CC(=O)Nc2ccccc21,"inconclusive [inhibitor, single point]",–
Cn1cnc([N+](=O)[O-])c1Oc1ccccc1,"inconclusive [inhibitor, single point]",–
COC(=O)c1c(NC(=O)Cc2cccs2)sc2c1CCC(C)C2 (stereo unspecified),–,inactive: 18.9%
Cc1cc(C)cc(NS(=O)(=O)c2ccc3c(c2)CCCN3C(=O)C2CCC2)c1,"inconclusive [inhibitor, single point]",–
O=C(Nc1ccccc1Cl)c1ccn[nH]1,–,inactive: 61.7%
COc1ccc(-n2ncc(C(=O)N3CCc4ccccc4C3)c2C2CCN(C(=O)OC(C)(C)C)CC2)cc1,–,inactive: -1.44%
COc1ccc(NC(=O)c2ccc(-c3ccc(F)cc3)o2)cc1OC,"inconclusive [inhibitor, partial curve, poor fit]",–
NC(c1csc(NC(=O)Nc2ccc(OC(F)(F)F)cc2)n1)C1CCCCC1 (stereo unspecified),"inconclusive [inhibitor, single point]",–
CCCCN(C(=O)c1ccc(-c2ccc(Cl)cc2)o1)c1c(N)n(CCCC)c(=O)[nH]c1=O,"inconclusive [inhibitor, full curve, poor fit]",–
CC(C)Oc1ccc(Cc2n[nH]c(=S)n2Cc2ccccc2)cc1Cl,"inconclusive [inhibitor, single point]",–
CCc1nc2c(OCC(=O)c3ccc(Cl)cc3Cl)cccn2c1N(C)C(=O)c1cccs1,"inconclusive [inhibitor, partial curve, poor fit]",–

SMILES,Potency,"activity change, negative = inhibition"
Cc1ccc(C(=O)N2CCCC(C(=O)c3ccc(Oc4ccccc4)cc3)C2)cn1 (stereo unspecified),"inconclusive [inhibitor, single point]",–
O=C(c1ccncc1)N(c1ccc2oc3c(c2c1)CCCC3)S(=O)(=O)c1cccc([N+](=O)[O-])c1,–,inactive: 10.4%
Cc1cc(C)c(NC(=O)C2CCN(c3nnc(C)c4c(C)n(-c5ccccc5)nc34)CC2)c(C)c1,–,inactive: 15.8%
CCn1c(SCC(=O)N2CCN(c3ccccc3F)CC2)nnc1-c1ccoc1C,"inconclusive [inhibitor, full curve, poor fit]",–
COc1ccc(CNC(=O)C(C)n2ccc3cc(S(=O)(=O)N4CCCC4)ccc32)cc1OC (stereo unspecified),–,inactive: -0.812%
COc1cccc(C2=CC(c3cccc(OC)c3OC)n3nnnc3N2)c1 (stereo unspecified),"inconclusive [inhibitor, partial curve, poor fit]",–
CC1Cc2cc(S(=O)(=O)NCc3ccccc3)ccc2N1C(=O)C1CC1 (stereo unspecified),–,inactive: 35.5%
O=C(/C=C/c1cn(CC(O)CN2CCCCC2)c2ccccc12)c1cccs1 (stereo unspecified),"inconclusive [inhibitor, partial curve, poor fit]",–
CCCCN(N=Nc1nonc1OC)c1nonc1OC,"inconclusive [inhibitor, single point]",–
O=C(CSc1nc2cc(Cl)ccc2s1)Nc1cccc(S(=O)(=O)N2CCOCC2)c1,"inconclusive [inhibitor, single point]",–
COc1ccccc1NS(=O)(=O)c1cccc(C(=O)N/N=C/c2c(CO)cnc(C)c2O)c1,"inconclusive [inhibitor, single point]",–
O=C(CCN1C(=O)C2C3C=CC(C3)C2C1=O)N1CCN(c2ccccn2)CC1 (stereo unspecified),–,inactive: -6.86%
Cc1c(C(=S)Nc2ccccc2)cnn1-c1ccc([N+](=O)[O-])cc1,"inconclusive [inhibitor, single point]",–
Cc1ccc(SC/C(O)=C(\C#N)c2nc3ccccc3s2)cc1,–,inactive: 11.1%
CCOC(=O)c1c(-c2cccs2)csc1NC(=O)CN(CC)CC,"inconclusive [inhibitor, partial curve, poor fit]",–
COC(=O)c1cc2sccc2n1Cc1nc(-c2ccc(Cl)cc2)oc1C,"inconclusive [inhibitor, single point]",–
Cc1cc(C)n(C(C)CC(=O)NCc2ccc(N(C)C)cc2)n1 (stereo unspecified),–,inactive: -1.42%
CCC(O)CC(C(=O)NNc1ccccc1)C(=O)NNc1ccccc1 (stereo unspecified),"inconclusive [inhibitor, full curve, poor fit]",–
O=C(Nc1ccc(F)cc1)C(=O)c1c(O)[nH]c2ccc([N+](=O)[O-])cc12,–,inactive: 14.4%
O=C(N/N=C/c1ccco1)c1ccccc1OCc1ccc(Br)cc1,"inconclusive [inhibitor, partial curve, poor fit]",–

# From PubChem BioAssay AID624417 (National Center for Advancing Translational Sciences (NCATS), 2012)
